About 200 (0.47%) of roughly 43,000 compounds were called active. Another 12% or so got no clear call; they are omitted. Calls come from the whole dose curve; as a rule, active = well fitted cell-killing curve with a large enough effect; inconclusive = small, poorly fitted or top-dose-only effect, or effect the other way; inactive = flat fitted curve, though single readings scatter. The list shows a part of the results.

This is an account of results in PubChem BioAssay AID1508642 (National Center for Advancing Translational Sciences (NCATS), 2021).
% is set by controls: 0 for no effect and ±100 for the full control effect.

This experiment in a line: Cell viability qHTS assay in S16 Pmp22-F2sN cells. Note: nearly all actives have a fitted effect of over 65% in size. Particulars: S16 Pmp22-F2sN Schwann cells viability, CellTiter-Glo, 24 h; series mostly up to 57.5 µM; activity change, negative = cytotoxicity: at the top concentration. The procedure, abridged: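 Used to flag compounds lowering reporter output through toxicity, this quantitative HTS measures ATP-based CellTiter-Glo luminescence in S16 Pmp22-F2sN Schwann cells after 24 h compound exposure at 37C.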
For `CCCCNC(=O)C(CC)Sc1nc2ccccc2c(=O)n1Cc1ccco1` (stereo not drawn), the “activity change, negative = cytotoxicity” value is inactive: -27.4%. In the case of `COCCCNC(=O)Cn1c(=O)n(-c2ccc(C)c(C)c2)c(=O)c2c3c(sc21)CCCCC3`, the “activity change, negative = cytotoxicity” value is inactive: 5.41%. Take `O=C(COc1ccc(F)cc1)Nc1nnc(S(=O)(=O)N2CCCC2)s1`: the “activity change, negative = cytotoxicity” value was inactive: 0.167%. For `COc1ccc(NC(=O)c2nnn(Cc3nc(-c4cc(OC)c(OC)c(OC)c4)oc3C)c2C)cc1Cl`, the “activity change, negative = cytotoxicity” value was inactive: 8.66%. Then `COc1ccccc1CNC(=O)c1ccc2[nH]c(C)c(C)c2c1`, with inactive: 4.54%; and `COc1ccc(OC)c(NS(=O)(=O)c2ccc(-n3cccn3)cc2)c1`, with inactive: -0.766%. Then `Cc1cccc(N(C)S(=O)(=O)c2nnc(NC(=O)c3cccs3)s2)c1`, with inactive: 0.862%. With `Cc1ccc(C(=O)c2sc(Nc3ccccc3)c(S(=O)(=O)c3ccccc3)c2N)c(C)c1` the figure was inactive: -3.42%. For `CCOC(=O)c1cccc(NC(=O)Cn2c(=O)c3cccn3c3ccccc32)c1`, the “activity change, negative = cytotoxicity” value was inactive: 8.36%.

As to `Cc1cc(C)n2nc(CNC(=O)c3c(F)cccc3F)nc2n1`, the “activity change, negative = cytotoxicity” value was inactive: -0.196%. Regarding `COCCNC(=O)c1sc2ncccc2c1-n1c(C)ccc1C`, the “activity change, negative = cytotoxicity” value was inactive: 5.04%. With `CCC(C)n1c(=O)c2sccc2n2c(CCCC(=O)NCc3ccccc3Cl)nnc12` (stereo not drawn) the figure was inactive: 9.54%; with `COCCn1c(CNC(=O)c2cccc(C)c2)nc2cccnc21`, inactive: 11.1%; with `COCCNC(=O)C1CCN(Cc2cc3ccccc3n2Cc2ccc(C)cc2)CC1`, inactive: -5.22%. Take `COc1ccc(NC(=O)c2ccc(NC(=O)N3CCSc4ncccc43)cc2)cc1`: the “activity change, negative = cytotoxicity” value is inactive: -26.9%.

Turning to `COc1ccccc1NC(=O)C1=C(C)Nc2nc(SCc3ccccc3)nn2C1c1cccc(O)c1` (stereo not drawn), the “activity change, negative = cytotoxicity” value was inactive: -3.29%. Then `CCCCn1c(SCc2ccccc2C)nc2ccsc2c1=O`, with inactive: -8.39%; and `COc1ccc(CNC(=O)C(=O)NCC(c2ccco2)S(=O)(=O)c2cccs2)cc1` (stereo not drawn), with inactive: -18.7%; and `Cc1ccc(S(=O)(=O)c2nc(-c3cccs3)oc2SCc2ccc(F)cc2)cc1`, with inactive: -7.28%. Then `CC(C)c1ccccc1NC(=O)C(Cc1c[nH]c2ccccc12)NC(=O)OC(C)(C)C` (stereo not drawn), with inactive: -13.5%; and `Cc1ccc(NS(=O)(=O)c2ccc3c(c2)CCN3C(=O)C2CC2)c(C)c1`, with inactive: -4.21%; and `Cc1ccc(NC(=O)c2ccc3c(O)c(S(=O)(=O)c4ccc(Cl)cc4)c(=O)[nH]c3c2)cc1`, with inactive: -0.81%. In the case of `CCOC(=O)C1CCCN(C(=O)Cn2ncc3c(C)n(Cc4ccc(Cl)cc4)c(C)c3c2=O)C1` (stereo not drawn), the “activity change, negative = cytotoxicity” value was inactive: -15.7%.

For `C=C(C)Cn1c(SCC(=O)c2ccc(Br)cc2)nc2sc3c(c2c1=O)CCCC3`, the “activity change, negative = cytotoxicity” value is inactive: 0.302%.

Consider `CC1=C(C#N)C(NC(=O)c2ccccc2)(C(F)(F)F)C(=O)N1` (stereo not drawn), for which the “activity change, negative = cytotoxicity” value was inactive: -0.0536%. On to `CCC(=O)N1CCc2cc(CNC(=O)Nc3cc(OC)c(OC)c(OC)c3)ccc21`, for which the “activity change, negative = cytotoxicity” value was inactive: 3.1%. Then `CCN(CC)C(=O)C1=C(C)Nc2nc3ccccc3n2C1c1ccccc1F` (stereo not drawn), with inactive: -0.57%; and `CCOC(=O)c1cc2c(=O)n3ccccc3nc2n(CCCOC)c1=NC(=O)c1c(-c2c(F)cccc2Cl)noc1C`, with inactive: -8.83%. On to `COc1ccccc1CNC(=O)Cc1c(C)c2cc3c(C)coc3c(C)c2oc1=O`, for which the “activity change, negative = cytotoxicity” value was inactive: 1.47%. With `CCOc1ccc(CCNC(=O)C2Cc3ccccc3N2C(=O)CC)cc1` (stereo not drawn) the figure was inactive: 9.92%; with `Cc1ccccc1Cn1c(=O)n(Cc2ccco2)c(=O)c2sc3ccccc3c21`, inactive: 21.8%; with `COc1ccc(CNC(=O)CC(C)CC2=NS(=O)(=O)c3ccccc3N2)cc1` (stereo not drawn), inactive: -1.62%.

`CCOc1ccc(S(=O)(=O)Nc2ccc3c(c2)CCCN3C(=O)c2cccs2)cc1`: the “activity change, negative = cytotoxicity” value is inactive: 0.183%. Then `O=C(Cc1ccc(NC(=O)N2CCCCc3ccccc32)cc1)NCc1cccc(Br)c1`, with inactive: 4.42%. Then `COc1ccc(Cl)cc1NC(=O)Cn1c(=O)n(-c2ccc(C)cc2)c(=O)c2ccc(C(=O)NCc3ccccc3Cl)cc21`, with inactive: 12.1%. For the compound `COc1cc(NC(=O)CCNC(=O)Cn2ccc3ccccc3c2=O)cc(OC)c1OC`, the “activity change, negative = cytotoxicity” value is inactive: 3.32%.

Turning to `COc1ccc(CCNC(=O)c2cc(Nc3ccccc3)nc3ccccc23)cc1OC`, the “activity change, negative = cytotoxicity” value is inactive: -2.79%.

For `O=C1CCc2cc(S(=O)(=O)NCc3ccccc3)cc3c2N1CC3`, the “activity change, negative = cytotoxicity” value is inactive: 7.78%. On to `CCn1c(C(=O)Nc2ccccc2C(=O)OC)cc2sc(Cl)cc21`, for which the “activity change, negative = cytotoxicity” value is inactive: -0.0271%. Then `COC(=O)c1c(NC(=O)CCCOc2ccc(C)cc2)sc2c1CCCC2`, with inactive: 1.05%. With `Cc1ccccc1Cn1c(SCc2ccc(C(=O)N3CCCCC3)cc2)nc2ccncc21` the figure was inactive: -0.953%. With `O=S(=O)(NCCc1csc(-c2cccc(F)c2)n1)c1cc(F)ccc1F` the figure was inactive: -27.1%. `CCCOc1ccc(OC(=O)c2ccc(-c3ccc(CCC)cn3)cc2)cc1`: the “activity change, negative = cytotoxicity” value was inactive: -27.7%. Consider `O=C(CCCCn1c(=O)c2ccccc2n(Cc2ccc(F)cc2Cl)c1=O)NCCc1ccc(Cl)cc1`, for which the “activity change, negative = cytotoxicity” value is inactive: 14.1%. Then `COC(=O)c1ccccc1NC(=O)CCCn1c(C)c2cnn(-c3ccccc3)c(=O)c2c1C`, with inactive: 9.69%. With `Cc1nc2c(c(C)nn2-c2ccccc2)c(C)c1CCC(=O)Nc1ccccc1` the figure was inactive: 3.39%; with `O=C(Nc1ccc(S(=O)(=O)N(Cc2ccccc2)c2ccccc2)cc1)c1ccccc1F`, inactive: 0.424%. With `Cc1ccc(NC(=O)Cn2c(=O)n(Cc3ccc(F)cc3)c(=O)c3cccnc32)cc1C` the figure was inactive: -0.947%. On to `COc1ccc(-c2nn3c(-c4ccccc4)nnc3c3ccccc23)cc1`, for which the “activity change, negative = cytotoxicity” value is inactive: -0.355%. Then `CC(=O)c1ccc(NC(=O)C2CCN(S(=O)(=O)c3c(C)noc3/C=C/c3ccc(C)cc3)CC2)cc1`, with inactive: -1.21%.

Consider `COc1ccc(CNC(=O)CN2C(=O)COc3ccccc32)c(OC)c1`, for which the “activity change, negative = cytotoxicity” value was inactive: 29.4%. Then `Cc1ccc2nc(NC(=O)CSc3cc(C)[nH]c(=O)n3)sc2c1`, with inactive: -9.04%; and `Oc1ccccc1-c1nc2cnccn2c1Nc1ccc(Cl)cc1`, with inactive: -18%. Then `CCOc1ccc(CNC(=O)CCCn2c(=O)c3cccn3c3cccnc32)cc1`, with inactive: -2.42%; and `Cc1cc(C(=O)NCCc2ccc(Cl)cc2)c2c(C)nn(-c3ccccc3)c2n1`, with inactive: 14.4%; and `COc1cc(CNC(=O)c2ccc(NC(=O)N3CCCCc4ccccc43)cc2)cc(OC)c1OC`, with inactive: -7.64%. With `Cc1ccc2oc(=O)c3cnn(CC(=O)N4CCN(c5cccc(Cl)c5)CC4)c3c2c1` the figure was inactive: 19.7%; with `CCOc1ccc(OCC)c(NC(=O)CN(C)S(=O)(=O)c2ccc3[nH]c(=O)oc3c2)c1`, inactive: 4.2%; with `CC(=O)c1cccc(NC(=O)CCn2nc(C)c(S(=O)(=O)N3CCCCC3)c2C)c1`, inactive: 2.82%. On to `O=C(NCCc1ccc(Cl)cc1)c1cnc2sc(N3CCCC3)nn2c1=O`, for which the “activity change, negative = cytotoxicity” value was inactive: -1.76%.

Consider `CCc1ccccc1NC(=O)C1CCCN(S(=O)(=O)c2ccc3[nH]c(=O)ccc3c2)C1` (stereo not drawn), for which the “activity change, negative = cytotoxicity” value was inactive: -4.8%. Then `Cc1ccc(OCC(=O)NCC(=O)OCc2cc(=O)n3nc(CC(C)C)sc3n2)cc1`, with inactive: 3.14%. With `COc1ccc(N2CCN(C(=O)CSc3nc(-c4ccccc4)no3)CC2)cc1` the figure was inactive: 12.2%; with `COc1ccc(OC)c(CCNC(=O)CCCn2c(=O)c3cccn3c3cccnc32)c1`, inactive: 27.8%.

Consider `O=C(NCc1ccccc1)c1ccc(CS(=O)(=O)c2c(Cl)cccc2Cl)o1`, for which the “activity change, negative = cytotoxicity” value was inactive: 21.4%. Regarding `COc1ccc(-c2n[nH]c3c2C(c2ccccn2)N(C)C3=O)cc1` (stereo not drawn), the “activity change, negative = cytotoxicity” value was inactive: 7.03%. Then `COc1ccc(-n2nc3c(N4CCC(C(=O)NC5CCCCC5)CC4)nnc(C)c3c2C)cc1`, with inactive: 3.68%; and `O=c1c2oc3ccccc3c2n(Cc2ccccc2F)c(=O)n1Cc1ccc2c(c1)OCO2`, with inactive: 22.7%. With `CC1=C(c2ccc(C)c(C)c2)S(=O)(=O)N=C1N1CCC(C(=O)NCc2ccc(N(C)C)cc2)CC1` the figure was inactive: -11.3%; with `COc1ccccc1NC(=O)N1CCN(c2nnc(C)c3c(C)n(-c4ccccc4)nc23)CC1`, inactive: -15.5%. With `Nc1c(-c2nc(-c3ccccc3Cl)no2)nnn1-c1ccccc1C(F)(F)F` the figure was inactive: 7.9%; with `Cc1ccc(-c2nnc(SCC(=O)NCc3ccccc3)o2)cc1`, inactive: 16.2%.

With `CCN(CC)CCN(C(=O)c1ccco1)c1nc2ccc(F)cc2s1`, the “activity change, negative = cytotoxicity” value is inactive: -5.03%. Then `CCCC(=O)N1c2ccccc2-c2nnc(SC)nc2OC1c1sccc1C` (stereo not drawn), with inactive: -24.5%; and `CCc1ccc(S(=O)(=O)Nc2cc3c(cc2C)n(C)c(=O)c(=O)n3C)cc1`, with inactive: 20.2%. With `CCOC(=O)c1c(NC(=O)COc2ccc(Cl)cc2Cl)sc2c1CCCCC2` the figure was inactive: 9.51%; with `CN(C)c1ccc(CNC(=O)Cn2c(-c3cccs3)cc3cc(Cl)ccc32)cc1`, inactive: 3.61%; with `CC(Oc1ccccc1)C(=O)Nc1c(C(=O)Nc2cccc(F)c2)oc2ccccc12` (stereo not drawn), inactive: 4.24%. Then `COc1cc2c(cc1NC(=O)c1ccccc1C)n(C)c(=O)n2C`, with inactive: 12.6%; and `CCc1ccc(CNC(=O)c2ccc(-c3nc(CSc4ccc(C)cc4)c(C)o3)cc2)cc1`, with inactive: 5.38%. On to `O=C(CSc1oc(-c2ccc(F)cc2)nc1S(=O)(=O)c1ccccc1)NC1CCCCC1`, for which the “activity change, negative = cytotoxicity” value was inactive: -7.41%. Regarding `CCSc1nnc(NC(=O)c2cc(=O)c3cc(C)ccc3o2)s1`, the “activity change, negative = cytotoxicity” value was inactive: 0.759%. With `COc1cc(C(=O)NCCc2sc(-c3cccc(F)c3)nc2C)cc(OC)c1OC` the figure was inactive: 5.58%; with `O=C(Nc1ccccc1Br)c1cc(CN2CCCC2)on1`, inactive: -1.72%. With `O=C(CCN1C(=O)c2ccccc2Sc2ncccc21)Nc1ccc(F)cc1` the figure was inactive: 7.22%. With `CC(CCc1ccccc1)NC(=O)Cn1ncc2c3ccccc3n(Cc3ccccc3)c2c1=O` (stereo not drawn) the figure was inactive: 15.9%.

For `COc1ccc(-c2nnc(SCC(=O)Nc3c(C)cccc3C)nc2-c2ccc(OC)cc2)cc1`, the “activity change, negative = cytotoxicity” value was inactive: -15.1%.

For `CC(C)CNc1ncnc2onc(-c3ccc(Cl)cc3)c12`, the “activity change, negative = cytotoxicity” value is inactive: -9.56%. Take `CCOC(=O)c1ccc(NC(=O)c2oc3c(c2C)-c2nn(Cc4ccccc4Cl)cc2CC3)cc1`: the “activity change, negative = cytotoxicity” value is inactive: -3.89%. Take `COc1cccc(CNC(=O)CCn2cnc3ccccc3c2=O)c1`: the “activity change, negative = cytotoxicity” value was inactive: -0.885%. With `CCCCc1ccc(NC(=O)CSc2nc(=O)[nH]c3c2CCCC3)cc1` the figure was inactive: 14.1%; with `Cc1cc2oc(C(=O)N(Cc3ccc(N(C)C)cc3)Cc3ccco3)c(C)c2cc1Cl`, inactive: 1.05%; with `Cc1ccccc1Nc1nc(N)c(C(=O)c2ccccc2Cl)s1`, inactive: 6.06%. With `CCOc1ccc(NC(=O)c2cnc3sc(N4CCOCC4)nn3c2=O)cc1` the figure was inactive: 12.9%; with `COc1cccc(N2CC(NC(=O)COc3ccccc3F)CC2=O)c1` (stereo not drawn), inactive: -5.25%. With `COC(=O)CCN(c1ccccc1)C(CNS(=O)(=O)c1ccccc1)c1ccccc1` (stereo not drawn) the figure was inactive: 18.8%; with `CCOc1ccc(CCNC(=O)Cn2c(-c3cccs3)cc3ccccc32)cc1OCC`, inactive: -8.46%; with `Cc1ccc(C)c(NC(=O)CSc2ccc3nc(-c4ccccc4)cn3n2)c1`, inactive: 1.58%.
